Measurements published in paper PMC4336329 (PLoS ONE, 2015).
Screen size: about 310,000 compounds; about 14,000 (4.5%) showed an effect of 50% or more. Effects have a minus sign here. Some of the results follow.

Molecular target: human ether-à-go-go-related gene (hERG) potassium channel (human, UniProt Q12809)
Experiment: primary screen, population patch clamp on CHO cells stably expressing hERG
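Also: peak tail current of the secondary pulse compared with the same well before compound.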

Sequence of human ether-à-go-go-related gene (hERG) potassium channel (Q12809 whole entry, looked up): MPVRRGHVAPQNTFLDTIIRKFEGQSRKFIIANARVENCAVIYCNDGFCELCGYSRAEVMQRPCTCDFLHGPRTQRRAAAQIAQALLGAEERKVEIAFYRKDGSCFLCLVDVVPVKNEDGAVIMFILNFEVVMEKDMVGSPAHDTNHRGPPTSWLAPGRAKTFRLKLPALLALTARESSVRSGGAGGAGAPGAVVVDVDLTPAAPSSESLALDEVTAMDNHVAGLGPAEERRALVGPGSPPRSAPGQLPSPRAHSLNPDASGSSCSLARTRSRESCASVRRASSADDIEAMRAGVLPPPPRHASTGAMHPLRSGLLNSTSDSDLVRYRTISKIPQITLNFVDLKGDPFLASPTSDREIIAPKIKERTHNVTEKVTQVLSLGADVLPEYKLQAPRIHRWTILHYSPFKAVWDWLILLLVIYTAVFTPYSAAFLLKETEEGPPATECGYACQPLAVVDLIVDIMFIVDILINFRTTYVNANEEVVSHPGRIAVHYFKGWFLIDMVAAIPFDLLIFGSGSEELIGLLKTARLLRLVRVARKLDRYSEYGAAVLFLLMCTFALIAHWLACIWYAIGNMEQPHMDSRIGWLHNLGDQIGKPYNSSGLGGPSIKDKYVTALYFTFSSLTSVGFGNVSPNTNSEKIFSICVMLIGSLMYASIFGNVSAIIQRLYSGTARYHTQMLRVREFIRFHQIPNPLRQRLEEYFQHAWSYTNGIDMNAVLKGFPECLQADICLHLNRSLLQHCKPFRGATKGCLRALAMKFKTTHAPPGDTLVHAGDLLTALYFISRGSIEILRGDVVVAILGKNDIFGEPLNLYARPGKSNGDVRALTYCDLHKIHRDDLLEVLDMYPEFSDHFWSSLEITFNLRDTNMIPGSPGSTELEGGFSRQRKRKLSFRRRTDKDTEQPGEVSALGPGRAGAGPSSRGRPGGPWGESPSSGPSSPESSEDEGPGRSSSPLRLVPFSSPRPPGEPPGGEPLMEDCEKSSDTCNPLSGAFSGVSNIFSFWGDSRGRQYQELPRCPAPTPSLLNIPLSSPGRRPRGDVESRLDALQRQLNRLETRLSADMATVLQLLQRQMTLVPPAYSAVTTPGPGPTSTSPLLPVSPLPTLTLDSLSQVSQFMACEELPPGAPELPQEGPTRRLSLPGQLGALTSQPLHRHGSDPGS

| SMILES | hERG current change (%, negative = inhibition) at 10uM [%] |
| --- | --- |
| CN(C(=O)c1ccc(NC(=O)Cc2cccc(NC(=O)C3CCN(C(=O)C4CCC4)CC3)c2)cc1)C1CCCC1 | 11 |
| Cc1c(N/C(=N/S(=O)(=O)c2ccc(F)cc2)c2ccccc2)c(=O)n(-c2ccccc2)n1C | 0.39 |
| O=C(NC1CCCC1)c1ccc(CS(=O)(=O)c2cccc(C(F)(F)F)c2)o1 | -24.3 |
| COc1ccc(C)cc1NC(=O)CSc1ccc(-c2sc(C)nc2C)nn1 | -6.48 |
| CS(=O)(=O)Cc1ccc(C(=O)NC2CCSc3ccccc32)cc1 (stereo not drawn) | -16.4 |
| Clc1cc(Cl)cc(C2=NC(Cc3ccccc3)CO2)c1 (stereo not drawn) | 16.9 |
| O=C(NCCOCc1ccccc1)C(c1ccccc1)c1ccccc1 | -9.69 |
| COc1ccc(-c2csc(NC(=O)CCn3cnc4ccccc4c3=O)n2)cc1OC | 0.239 |
| Cc1ccc(C)c(S(=O)(=O)N/N=C/c2ccc(N3CCOCC3)cc2)c1 | 6.74 |
| COc1cc(OC)cc(C(=O)NNC(=O)CN2C(=O)NC(C)(c3ccccc3)C2=O)c1 (stereo not drawn) | 22.9 |
| Cc1ccn(CC(=O)O)c(=O)c1 | -4.04 |
| Cc1c(NS(=O)(=O)c2ccc3c(c2)n(C)c(=O)n3C)c(=O)n(-c2ccccc2)n1C | 10.1 |
| COc1ccc(C(CCNCc2ccccc2)c2ccc(F)cc2)cc1 (stereo not drawn) | -66.7 |
| Cc1ccc(Nc2nc(C)cc(C)n2)c(Br)c1 | -14.5 |
| CC(C(=O)OCC(=O)Nc1ccc2c(c1)OCO2)N1C(=O)c2ccccc2C1=O (stereo not drawn) | -12.4 |
| O=[N+]([O-])c1ccc(Cl)c(S(=O)(=O)n2ccnc2)c1 | 5.1 |
| COc1ccc(NC(=O)C2C3C=CC(C3)C2C(=O)O)cc1 (stereo not drawn) | -2.32 |
| COC(=O)COc1c(Cl)cc(Cl)c2ccc(C)nc12 | -0.397 |
| C=CCn1c(O)c(C(CC)=Nc2cc(OC)ccc2OC)c(=O)[nH]c1=O | 2.22 |
| COc1ccc(-c2cc(C(=O)Nc3ccccc3O)c3ccccc3n2)cc1 | 13.1 |
| CC(C)CNC(=O)c1cccc(NC(=O)C(C)C)c1 | 6.64 |
| O=C(NCCc1ccccc1)C(=O)NN=C1CCCC1 | 0.258 |

| SMILES | hERG current change (%, negative = inhibition) at 10uM [%] |
| --- | --- |
| COc1cc(/C=C(\C#N)C(=O)Nc2cccc(C(=O)O)c2)ccc1OCc1ccc(Cl)cc1 | 20 |
| COc1ccccc1N1CCN(C2CCCN(C(=O)c3cccc(-c4ccco4)c3)C2)CC1 (stereo not drawn) | -36.1 |
| CCS(=O)(=O)N1Cc2ccccc2CC1C(=O)NCCc1ccccc1 (stereo not drawn) | -15.2 |
| CCNc1nc(NCC)n2c(SC(C(=O)Nc3cc(C)ccc3C)c3ccccc3)nnc2n1 (stereo not drawn) | -1.82 |
| O=C(c1ccc(S(=O)(=O)N2CCOCC2)cc1)N1CCN(S(=O)(=O)c2ccc(Cl)s2)CC1 | -0.782 |
| COc1ccc(NC(=O)C(C/C=C(/C)Cl)C(C)=O)cc1 (stereo not drawn) | -6.29 |
| CC(C)C(NC(=O)c1ccccc1NC(=O)c1ccco1)C(=O)NNC(=O)c1ccncc1 (stereo not drawn) | 5.98 |
| CCOc1ccc(/C=N/NC(=O)c2ccccc2O)cc1CN1CC2CC(C1)c1cccc(=O)n1C2 (stereo not drawn) | -16.7 |
| C=C(C)c1cccc(C(C)(C)NC(=O)NCc2ccncc2)c1 | -9.41 |
| Cc1c(S(=O)(=O)Nc2ccc3c(c2)OCCO3)c(=O)n(C)c(=O)n1C | -10.7 |
| Cc1ccc(Cl)c(OCCN2CCc3ccccc3C2)c1.Cl | -9.17 |
| Cc1cc(C)n(CC(O)Cn2c(C)c(C)c3ccccc32)n1.O=C(O)C(=O)O (stereo not drawn) | 7.14 |
| Cc1ccc(C)c(NC(=O)C2CC=CCC2C(=O)O)c1 (stereo not drawn) | 20 |
| COc1ccc(CCNC(=O)/C=C/c2ccc3ccccc3n2)cc1OC | 8.48 |
| Cc1ccc2cc(C)c(SCC(=O)Nc3ccc(S(=O)(=O)N4CCCC4)cc3)nc2c1 | 11.7 |
| COc1ccc(C)c2sc(N(CCCN(C)C)C(=O)CS(=O)(=O)c3ccc(F)cc3)nc12.Cl | -60.3 |
| CC(C)N1C(=O)CSC1c1ccc(Br)cc1 (stereo not drawn) | 5.07 |
| Cc1cccc(C2=NC(C(F)(F)F)(C(F)(F)F)c3c(n(-c4ccc(F)cc4)c(=O)[nH]c3=O)N2)c1 | -2.79 |
| CCOC(=O)CN(C(=O)CSc1nnc(CNc2ccc(C)cc2C)n1CC)c1ccccc1 | -24.7 |
| COC(=O)c1ccc(C(=O)Nc2ccc(N)cc2N)cc1 | 8.54 |
| Cc1ccc(S(=O)(=O)N(CC(=O)N2CCC(C(N)=O)CC2)c2cccc(C(F)(F)F)c2)cc1 | -3.78 |
| CN(C)/C(=N\S(=O)(=O)c1ccccc1)c1ccccc1 | 10.6 |

| SMILES | hERG current change (%, negative = inhibition) at 10uM [%] |
| --- | --- |
| COCCCn1c(C2CCCCC2)nc2oc3cc(OC)ccc3c(=O)c2c1=O | -3.91 |
| CC(C)(C)SCCNC(=O)Nc1ccccc1 | 5.18 |
| CC(C)c1ccc(NC(=O)C(=O)C2C(=O)Nc3ccccc32)cc1 (stereo not drawn) | -1.62 |
| O=C(O)c1ccc(-n2cncn2)c([N+](=O)[O-])c1 | 11.6 |
| CS(=O)(=O)N(CC(=O)NCc1ccco1)c1ccc(Cl)cc1Cl | 8.43 |
| Cc1nc2ccccc2c(=O)n1/N=C/c1cccnc1 | 4.39 |
| COc1cc(OC)cc(N(C(=O)c2ccco2)C(C(=O)NC2CCCC2)c2ccc(N(C)C)cc2)c1 (stereo not drawn) | -31.5 |
| Cc1ccc(N(CC(=O)NC(C)(C)C)C(=O)CCC(=O)Nc2nccs2)c(C)c1 | 10.9 |
| COc1ccc([C@@H]2[C@@H](C(=O)C(C)(C)C)N3N=Cc4ccccc4[C@@H]3C23C(=O)OC(C)(C)OC3=O)cc1OC | -9.52 |
| CC(C)NC(=S)N/N=C1\CCCCC1C1CCCCC1 (stereo not drawn) | 23.3 |
| CCC1(CC)C(=O)N(C)C(=O)NC1=NC | 10.6 |
| Cc1cc(C)c2c(CN3CCN(Cc4ccc5c(c4)OCO5)CC3)cc(=O)oc2c1 | -75.4 |
| CNC(=S)N/N=C(\C)c1ccccc1 | -18.4 |
| O=C(NN=C1CCCCCC1)c1cccnc1 | 17.3 |
| O=C(Nc1ccc(Br)cc1)C1OCCc2ccccc21 (stereo not drawn) | -17 |
| S=C(Nc1ccc(Oc2ccccc2)cc1)NC1CCCCC1 | 8.35 |
| O=c1ccc(-c2ccccc2)nn1Cc1ccc(F)cc1 | -12 |
| COc1ccc(C2=NN(CC(=O)Nc3cc(C)ccc3C)C(=O)CC2)cc1 | -10.4 |
| COc1cccc2cc(C(=O)NCCC3=CCCCC3)c(=O)oc12 | 2.79 |
| CC(OC(=O)c1cc2sccc2n1C)C(=O)NC(C)(C)C (stereo not drawn) | 17.3 |
| CC1(C)Oc2ccc3ccc(=O)oc3c2[C@H](O)[C@H]1O | 21.7 |
| C=CCn1c(C)cc(C(=O)COC(=O)c2cncc(Br)c2)c1C | -55.9 |

| SMILES | hERG current change (%, negative = inhibition) at 10uM [%] |
| --- | --- |
| Cc1cccc(C)c1NC(=S)N/N=C/c1ccc(OCCC(C)C)cc1 | -4.53 |
| CC1CCCCC12NC(=O)N(CC(=O)NCCc1ccccn1)C2=O (stereo not drawn) | -18.2 |
| CC1(C)Cc2c(C#N)c(SCCC#N)nc(N3CCOCC3)c2CS1 | -34.7 |
| COc1cccc(CSc2nnc(C(F)(F)F)n2Cc2ccc(F)cc2)c1 | -32.5 |
| Cc1ccc2oc(C(=O)N(Cc3nccn3C)C(C)C)c(C)c2c1 | -30.1 |
| COc1ccc([N+](=O)[O-])c(OC)c1C(=O)NC(=O)Nc1c(F)c(F)c(F)c(F)c1F | 9.24 |
| O=C(c1ccccc1)N1N=C(c2ccccc2)CC1c1ccccc1O (stereo not drawn) | -13.6 |
| CS(=O)(=O)N(CC(=O)Nc1c(F)cccc1F)c1ccc(C23CC4CC(CC(C4)C2)C3)cc1 | 20.4 |
| CCCn1nnnc1NCc1ccc(OC)cc1OC | 8.86 |
| CC(C)c1c(C(=O)N/N=C/c2ccc(OCc3ccccc3)cc2)nnn1-c1nonc1N | 21.7 |
| C/C(CC(=O)NCc1ccc(Cl)cc1)=N\NC(=O)COc1ccc(C)cc1Br | -33.1 |
| CCOC(=O)c1c(NC(=O)CC)sc(C(C)=O)c1C | 0.466 |
| CN(C)S(=O)(=O)n1cc(/C=C(\NC(=O)c2ccccc2)C(=O)NCCCn2ccnc2)c2ccccc21 | 8.31 |
| CC(=O)c1ccc2c(c1)OCCOCCOCCO2 | 8.76 |
| S=C(NC1CCCC1)NC1CC1 | 35.9 |
| Cc1ccc(Nc2nc(N)nc(-c3oc4ccccc4c3C)n2)cc1 | 4.38 |
| CCN(CC)C(=O)c1[nH]cnc1C(=O)NC1CCN(C(=O)OC(C)(C)C)CC1 | 22.7 |
| CCCCCC1CCC(c2nnc(SCC(C)=O)o2)CC1 (stereo not drawn) | 19.1 |
| CCCCC(=O)OCC(=O)c1[nH]c(C)c(C(=O)OCC)c1C | 0.828 |
| Cc1ccc(NC(=O)c2ccc(OC(=O)C(C)Oc3ccc(Cl)cc3C)cc2)cc1 (stereo not drawn) | 9.34 |
| Cc1cc(=O)n2c(C)n[nH]c2n1 | 4.11 |
